Assay results: PubChem BioAssay AID624417 (National Center for Advancing Translational Sciences (NCATS), 2012)
The whole screen tested about 410,000 compounds, of which about 6,400 (1.6%) were called active. The inconclusive results got no clear call from the source; some entries with a clear call stand among them for comparison. The call rests on the fitted dose curve; in most records, active means well fitted inhibition curve with a large enough effect; inconclusive means small, poorly fitted or top-dose-only effect; inactive means no such curve, though single readings can be large or run the other way. Potencies of inconclusive entries are left out as doubtful fits.

target: Glucagon-like peptide 1 receptor (Homo sapiens) (UniProt P43220); assay: qHTS of GLP-1 Receptor Inverse Agonists (Inhibition Mode); details: HEK293 GLP-1R CRE-luciferase, luminescence, 24 h, GLP-1R form is constitutively active; activity change, negative = inhibition: at 38.3 µM (top of the series) unless noted; further: nearly all actives have a fitted effect of over 55% in size
Method in brief: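 Inverse agonists were sought by their lowering of basal cAMP reporter luciferase output in HEK293 cells stably carrying constitutively active human GLP-1R, after 24 h compound treatment.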
On the % scale 0 is the no-effect control and ±100 the full control effect; potency means the concentration at half of the fitted maximal effect; tags describe the fitted curve by direction and shape.

UniProt P43220, sequence (P43220 whole entry, looked up): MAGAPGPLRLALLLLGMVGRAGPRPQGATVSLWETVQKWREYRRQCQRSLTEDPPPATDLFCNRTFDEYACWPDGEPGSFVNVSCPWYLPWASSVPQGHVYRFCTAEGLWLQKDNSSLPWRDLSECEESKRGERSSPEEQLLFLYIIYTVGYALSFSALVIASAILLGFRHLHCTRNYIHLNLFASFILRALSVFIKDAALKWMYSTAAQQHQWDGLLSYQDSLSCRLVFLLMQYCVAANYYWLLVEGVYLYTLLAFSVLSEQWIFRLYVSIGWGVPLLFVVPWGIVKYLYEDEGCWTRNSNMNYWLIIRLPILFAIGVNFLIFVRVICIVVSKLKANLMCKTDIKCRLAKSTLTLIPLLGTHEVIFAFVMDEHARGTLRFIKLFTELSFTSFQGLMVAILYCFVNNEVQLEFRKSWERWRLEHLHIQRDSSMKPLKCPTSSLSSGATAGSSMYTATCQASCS

Structure (SMILES) | Potency | activity change, negative = inhibition
CN(/N=C/c1ccc(O)cc1O)c1nc(-c2ccccc2)cc(-c2ccccc2)n1 | inconclusive [inhibitor, single point] | –
Cc1cccc(C(=O)N2CCN(Cc3ccc4c(c3)OCO4)CC2)c1 | inconclusive [inhibitor, single point] | –
O=C(Nc1ccccc1C(=O)Nc1ccc(Cl)cc1)c1cccnc1 | inactive | –
CC1CCCCC12NC(=O)N(CC(=O)Nc1ccccc1-c1ccccc1)C2=O (stereo not drawn) | inconclusive [inhibitor, single point] | –
COCCCNc1nc2ccccc2nc1NS(=O)(=O)c1ccc(Cl)cc1 | inconclusive [inhibitor, single point] | –
CC(=O)Oc1ccc2ccccc2c1C(NC(=O)Cc1ccccc1)c1ccccc1Cl (stereo not drawn) | active: 5.62 µM | –
O=C(Nc1nc(-c2ccco2)cs1)c1ccccc1 | inconclusive [inhibitor, single point] | –
CCOC(=O)c1nnn(-c2nonc2-n2cccc2)c1CN1CCC(C)CC1 | inconclusive [inhibitor, partial curve, poor fit] | –
Cc1cccc(NS(=O)(=O)c2cccc(C(=O)NCC(C)(C)N3CCOCC3)c2)c1 | inactive | –
Clc1ccccc1OCCN1CCCCC1 | inactive | –
CCN(CC)S(=O)(=O)c1ccc(C)c(NC(=O)/C=C/c2cccs2)c1 | inconclusive [inhibitor, single point] | –
C=CCc1ccc(O)c(-c2ccc(O)c(CC=C)c2)c1 | inconclusive [inhibitor, single point] | –
CCOc1ccccc1OCCCOc1ccc(C)cc1Cl | inconclusive [inhibitor, single point] | –
CC(C)(C)c1cc(NC(=O)Nc2ccccc2OC(F)(F)F)no1 | inconclusive [inhibitor, partial curve, poor fit] | –
COc1ccc(N2CCN(C(=O)CCNS(=O)(=O)c3ccc(Br)s3)CC2)cc1 | inconclusive [inhibitor, partial curve, poor fit] | –
CS(=O)(=O)c1ccc2nc(NC(=O)c3cccs3)sc2c1 | inconclusive [inhibitor, partial curve, poor fit] | –
O=C(N/N=C/c1cccc(OCc2ccccc2)c1)c1ccc(Br)o1 | inconclusive [inhibitor, single point] | –
ON/C=N/C(=S)Nc1ncc(C(F)(F)F)cc1Cl | inconclusive [inhibitor, single point] | –
CCOC(=O)C1CCN(C(=O)CC(NS(=O)(=O)c2ccc(OC)cc2)C(C)C)CC1 (stereo not drawn) | inactive | –
Nc1nn(S(=O)(=O)c2cccc3nsnc23)cc1-c1ccc(Br)cc1 | inconclusive [inhibitor, single point] | –
Cc1cc(C)c(C(=O)/C=C/C=C/c2ccccc2)c(=O)[nH]1 | inactive | –
Cc1ccc(C(=O)OCC(=O)Nc2cc(C(C)(C)C)nn2-c2ccccc2)c(O)c1 | inconclusive [inhibitor, partial curve, poor fit] | –

Structure (SMILES) | Potency | activity change, negative = inhibition
O=C(CSc1nc(=O)n(Cc2ccccn2)c2c1CCC2)Nc1ccc(F)cc1F | inconclusive [inhibitor, single point] | –
COc1ccc(NC(=O)CCc2c(C)nn(-c3ccc(N4CCCC4)nn3)c2C)cc1Cl | inactive | –
Cc1cc(C(=O)N2CCN(c3cc(Cl)ccc3C)CC2)on1 | inconclusive [inhibitor, single point] | –
CCCCN(C(=O)c1ccc2c(c1)NC(=O)CS2)c1ccccc1 | inconclusive [inhibitor, partial curve, poor fit] | –
CCOC(=O)C1CCCN(Cc2c(Cl)cccc2Cl)C1 (stereo not drawn) | inconclusive [inhibitor, single point] | –
CCN(c1ccccc1)S(=O)(=O)c1ccc2ccccc2c1 | – | inconclusive: -78.3% [inhibitor]
COc1ccc(N2CCN(C(=O)Cn3cnc4sc(C)c(S(=O)(=O)N5CCCCC5)c4c3=O)CC2)cc1 | inactive | –
CCCCNc1nc(-c2ccccc2)cc(C(F)(F)F)c1C(N)=O | inconclusive [inhibitor, single point] | –
COc1cccc(NC(=O)CN(C)C(=O)CCCc2c[nH]c3ccccc23)c1 | inconclusive [inhibitor, partial curve, poor fit] | –
CC(C)CCNC(=O)COc1cccc2c1OC(C)(C)C2 | inconclusive [inhibitor, partial curve] | –
CN1CCN(C2=Cc3ccccc3Sc3cc(F)c(Cl)cc32)CC1 | inconclusive [inhibitor, partial curve, poor fit] | –
Cc1ccc(CN(C)C(=O)c2ccccc2Sc2ccccc2C#N)cc1 | active: 10 µM | –
CCOCCCNC(=O)C1CCN(c2nc3ccc(C)cc3[nH]2)CC1 | inactive | –
Cc1ccc(NC(=O)N2CCc3ccccc32)cc1 | inconclusive [inhibitor, single point] | –
CCOC(=O)c1cc2sc(C)cc2n1CC(=O)NCCc1ccccc1 | inconclusive [inhibitor, partial curve, poor fit] | –
CCc1nnc(NC(=O)CCC(=O)N2CCN(c3cc(Cl)ccc3C)CC2)s1 | inconclusive [inhibitor, partial curve, poor fit] | –
COc1cc2c(cc1NC(=O)c1ccc(C(C)(C)C)cc1)CCCC2 | inconclusive [inhibitor, partial curve, poor fit] | –
COCCNC(=S)N/N=C(\C)c1cccc(OC)c1 | active: 3.98 µM | –
COC(=O)c1ccc(N/N=C/c2cc([N+](=O)[O-])cc(OC)c2O)cc1 | inconclusive [inhibitor, full curve, poor fit] | –
CCCCN1C(=O)C(CC(=O)NC2CCCCC2)CC(C(=O)N2CCOCC2)=C1C (stereo not drawn) | inactive | –
COC(=O)[C@@]12C[C@@H](CC(=O)NCC34CC5CC(CC(C5)C3)C4)C(=O)N(Cc3ccccc3)C1=CCC(C)(C)C2 | inconclusive [inhibitor, partial curve] | –
